The text below walks through data of PMC4336329 (PLoS ONE, 2015).

Screen size: about 310,000 compounds; about 14,000 (4.5%) showed an effect of 50% or more. Effects have a minus sign here. The list shows a part of the results.
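Also: peak tail current of the secondary pulse compared with the same well before compound.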

Chain of human ether-à-go-go-related gene (hERG) potassium channel (Q12809 whole entry, looked up): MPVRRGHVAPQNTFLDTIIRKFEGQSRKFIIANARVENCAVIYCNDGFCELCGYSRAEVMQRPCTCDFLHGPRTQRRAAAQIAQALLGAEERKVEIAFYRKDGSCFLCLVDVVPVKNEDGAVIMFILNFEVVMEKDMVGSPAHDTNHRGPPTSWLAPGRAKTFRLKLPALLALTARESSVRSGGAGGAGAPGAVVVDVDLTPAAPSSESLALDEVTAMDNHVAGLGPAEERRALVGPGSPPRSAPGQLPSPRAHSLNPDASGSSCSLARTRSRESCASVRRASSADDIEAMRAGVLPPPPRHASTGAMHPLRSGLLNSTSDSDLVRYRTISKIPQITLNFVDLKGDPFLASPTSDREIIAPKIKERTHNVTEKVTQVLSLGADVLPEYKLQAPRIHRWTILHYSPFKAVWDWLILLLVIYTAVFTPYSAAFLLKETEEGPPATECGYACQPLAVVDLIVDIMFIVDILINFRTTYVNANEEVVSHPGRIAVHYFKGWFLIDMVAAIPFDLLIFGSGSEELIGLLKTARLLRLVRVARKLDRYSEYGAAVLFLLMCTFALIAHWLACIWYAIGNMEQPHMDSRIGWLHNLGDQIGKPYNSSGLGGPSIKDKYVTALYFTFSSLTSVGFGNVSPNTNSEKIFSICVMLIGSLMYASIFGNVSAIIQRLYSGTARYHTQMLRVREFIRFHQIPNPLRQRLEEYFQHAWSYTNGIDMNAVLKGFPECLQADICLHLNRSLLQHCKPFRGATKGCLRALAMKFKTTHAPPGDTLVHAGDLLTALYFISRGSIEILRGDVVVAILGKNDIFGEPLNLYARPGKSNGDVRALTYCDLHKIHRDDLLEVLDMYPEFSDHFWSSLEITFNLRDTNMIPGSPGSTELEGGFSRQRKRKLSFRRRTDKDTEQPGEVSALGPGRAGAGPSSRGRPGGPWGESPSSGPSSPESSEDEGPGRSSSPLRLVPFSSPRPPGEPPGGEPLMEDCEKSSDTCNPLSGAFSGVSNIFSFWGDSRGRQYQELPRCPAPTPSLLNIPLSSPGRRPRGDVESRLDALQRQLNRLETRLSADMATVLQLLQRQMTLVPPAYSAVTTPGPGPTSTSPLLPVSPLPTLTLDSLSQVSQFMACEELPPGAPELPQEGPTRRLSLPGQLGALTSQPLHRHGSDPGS

This test addresses human ether-à-go-go-related gene (hERG) potassium channel (human, UniProt Q12809). Briefly: primary screen, population patch clamp on CHO cells stably expressing hERG.
Consider `CCOc1ccccc1N1CC(C(=O)N(C)Cc2cccnc2)CC1=O` (stereo not shown), for which the “hERG current change (%, negative = inhibition) at 10uM” value was found to be 15%.

Regarding `CC1CCCCN1Cc1c(O)ccc2c(=O)c(-c3nc4ccccc4s3)c(N)oc12` (stereo not shown), the “hERG current change (%, negative = inhibition) at 10uM” value was -60.6%.

As to `NS(=O)(=O)c1ccc(N=Nc2c(O)ccc3ccccc23)cc1`, the “hERG current change (%, negative = inhibition) at 10uM” value is recorded as -15.3%.

In the case of `O=C(N/N=C/c1c(O)n(Cc2ccccc2)c(=O)[nH]c1=O)c1ccncc1`, the “hERG current change (%, negative = inhibition) at 10uM” value was found to be 12.9%.

`COc1ccc(/C=C/CN2CCCC(CCC(=O)NCc3ccc(F)c(F)c3)C2)cc1` (stereo not shown): the “hERG current change (%, negative = inhibition) at 10uM” value was -72.8%.

As to `CC(=O)c1c(C)[nH]c(C(=O)COc2ccc3ccc(=O)oc3c2)c1C`, the “hERG current change (%, negative = inhibition) at 10uM” value is given as -10.6%.

On to `C=CCn1c(/N=C/c2ccc3c(c2)OCO3)nc2ccccc21`, for which the “hERG current change (%, negative = inhibition) at 10uM” value was -7.49%.

As to `CCOC(=O)C1=C(CP(=O)(c2ccccc2)c2ccccc2)NC(=O)NC1c1ccc(Cl)cc1` (stereo not shown), the “hERG current change (%, negative = inhibition) at 10uM” value is given as 0.987%.

With `Cc1noc(/C=C/N(C)C)c1S(=O)(=O)N1CCCC(C(=O)NCc2ccccc2Cl)C1` (stereo not shown), the “hERG current change (%, negative = inhibition) at 10uM” value is listed as 5.27%.

Regarding `O=C(C1CCN(Cc2cccs2)CC1)N1CCN(Cc2ccc3c(c2)OCO3)CC1.O=C(O)C(=O)O`, the “hERG current change (%, negative = inhibition) at 10uM” value is -14.5%.

For `Cc1ccccc1NC(=O)N1CCCC(c2nc(-c3ccc(F)cc3)no2)C1` (stereo not shown), the “hERG current change (%, negative = inhibition) at 10uM” value is on record as -26.2%.

Take `O=C(Cn1cnc2sc3c(c2c1=O)CCCC3)NCC(=O)Nc1ccc(F)cc1F`: the “hERG current change (%, negative = inhibition) at 10uM” value worked out at 5.23%.

In the case of `CCN(c1cccc(C)c1)c1ncnc2nc[nH]c12`, the “hERG current change (%, negative = inhibition) at 10uM” value came to 9.59%.

Turning to `O=C1NC(c2ccccc2)=C(c2nc3ccccc3s2)C(c2ccc(O)cc2)N1` (stereo not shown), the “hERG current change (%, negative = inhibition) at 10uM” value is listed as 5%.

Take `O=C(Nc1ccccc1F)c1ccc(CN2CCc3ccccc3C2)cc1`: the “hERG current change (%, negative = inhibition) at 10uM” value was 13.7%.

For the compound `COc1cccc(NC(=O)CCC2CCN(C(=O)c3sccc3C)CC2)c1`, the “hERG current change (%, negative = inhibition) at 10uM” value is listed as 4.54%.

Regarding `c1ccc(Cc2nnc(-c3ccccc3)o2)cc1`, the “hERG current change (%, negative = inhibition) at 10uM” value is recorded as -2.33%.

Turning to `CCOC(=O)c1c[nH]c2ccc3ccccc3c2c1=O`, the “hERG current change (%, negative = inhibition) at 10uM” value is given as 13%.

With `CCCCOC(=O)c1ccc(NC(=O)CN2C(=O)NC3(CCCCCC3)C2=O)cc1`, the “hERG current change (%, negative = inhibition) at 10uM” value is given as -12.5%.

`COc1cc2cc(CCCOC(=O)c3cccc(Br)c3)oc(=O)c2cc1OC`: the “hERG current change (%, negative = inhibition) at 10uM” value is on record as -2.2%.

In the case of `CCOc1ccccc1CNC(=O)CCN1C(=O)COc2ccccc21`, the “hERG current change (%, negative = inhibition) at 10uM” value is listed as -7.73%.

With `COc1cccc(CC(NC(C)=O)C(=O)NC2CCN(S(=O)(=O)c3ccc(F)cc3)CC2)c1OC` (stereo not shown), the “hERG current change (%, negative = inhibition) at 10uM” value amounted to 10.5%.

In the case of `COc1cc(C)c(C(C)C)cc1S(=O)(=O)NC1CC(C)(C)NC(C)(C)C1`, the “hERG current change (%, negative = inhibition) at 10uM” value turned out to be 10.8%.

For `CC(OC(=O)C1CC1)C(=O)Nc1ncc(Cl)cc1Cl` (stereo not shown), the “hERG current change (%, negative = inhibition) at 10uM” value worked out at 18.1%.

With `CCCCCn1c(=O)[nH]c2cc(C(=O)NCCCN3CCC(C)CC3)ccc2c1=O`, the “hERG current change (%, negative = inhibition) at 10uM” value is listed as -44.4%.

For the compound `CN(C)c1ccc(NC(=O)Oc2ccccc2)cc1`, the “hERG current change (%, negative = inhibition) at 10uM” value is listed as 2.82%.

Turning to `CCCCn1c(=O)[nH]c(=O)c2c1nc(-c1ccc([N+](=O)[O-])cc1)n2CC`, the “hERG current change (%, negative = inhibition) at 10uM” value was -19.2%.

`Cn1c(=O)n(C)c2cc(/C=N/N=C3/NC(=O)C(CC(=O)O)S3)ccc21` (stereo not shown): the “hERG current change (%, negative = inhibition) at 10uM” value is 16%.

With `O=[N+]([O-])c1cnccc1Nc1ccc(Cl)cc1`, the “hERG current change (%, negative = inhibition) at 10uM” value was -41%.

Turning to `O=C(Oc1cc2oc(=O)c3c(c2cc1Cl)CCCC3)c1ccco1`, the “hERG current change (%, negative = inhibition) at 10uM” value was determined as 7.8%.

With `CCCCC1CC1C(=O)Nc1ncc2c(n1)CC(C)(C)CC2=O` (stereo not shown), the “hERG current change (%, negative = inhibition) at 10uM” value is -57.5%.

As to `COc1cc(CNc2nc3ccccc3n2C)cc(OC)c1OC`, the “hERG current change (%, negative = inhibition) at 10uM” value was -16.8%.

As to `Cl.Oc1ccc(Cl)cc1CNCc1ccc(F)c(F)c1`, the “hERG current change (%, negative = inhibition) at 10uM” value is given as 2.87%.

Take `O=C(CC1C(=O)NCCN1Cc1cccc(F)c1F)NC1CCCCCC1` (stereo not shown): the “hERG current change (%, negative = inhibition) at 10uM” value was -10.6%.

Take `CCCc1ccc(S(=O)(=O)N2CCN(C(C)C(=O)NCc3ccc(OC)cc3)CC2)cc1` (stereo not shown): the “hERG current change (%, negative = inhibition) at 10uM” value was -57.4%.

Turning to `O=C(NNC(=S)Nc1ccc(Cl)cc1Cl)c1ccncc1`, the “hERG current change (%, negative = inhibition) at 10uM” value is recorded as 23%.

For `Cc1cccc(C)c1NC(=O)CN(C)C(=O)CC1OC(=O)c2ccccc21` (stereo not shown), the “hERG current change (%, negative = inhibition) at 10uM” value came to 10.8%.

For `COc1ccc(CCNC(=O)CCS(=O)(=O)c2ccc3nc(C)sc3c2)cc1OC`, the “hERG current change (%, negative = inhibition) at 10uM” value is -13.1%.

With `CCCNS(=O)(=O)c1ccc(CCC(=O)N2CCN(c3ccc(F)cc3)CC2)cc1`, the “hERG current change (%, negative = inhibition) at 10uM” value is listed as -43.7%.

As for `O=C(Nc1cccc(NC(=O)c2cccnc2Cl)c1)c1ccco1`, the “hERG current change (%, negative = inhibition) at 10uM” value is recorded as 11.5%.

In the case of `COc1ccc(N2C(=O)c3ccccc3NC2c2ccccc2O)cc1` (stereo not shown), the “hERG current change (%, negative = inhibition) at 10uM” value stood at 15.1%.

Turning to `Cc1n[nH]c(C)c1S(=O)(=O)N(CC(=O)Nc1ccc2c(c1)OCCO2)c1ccc(C(C)C)cc1`, the “hERG current change (%, negative = inhibition) at 10uM” value came to 6.48%.

Consider `CC1(C)Cc2nc(N)c(C(=O)NCCO)cc2CO1`, for which the “hERG current change (%, negative = inhibition) at 10uM” value is on record as -2.36%.

On to `O=C(CSC1=Nc2ccccc2C2CC=NN12)Nc1ccc(F)c(F)c1F` (stereo not shown), for which the “hERG current change (%, negative = inhibition) at 10uM” value is -16.1%.

As to `O=C(Nc1ccc(NC(=O)c2ccc([N+](=O)[O-])cc2[N+](=O)[O-])cc1)c1ccco1`, the “hERG current change (%, negative = inhibition) at 10uM” value is reported as 13.8%.

Consider `COc1cccc(/C=N/NC(=O)c2ccccc2N(Cc2ccccc2)S(=O)(=O)c2ccccc2)c1OC`, for which the “hERG current change (%, negative = inhibition) at 10uM” value is on record as -6.05%.

For `Nc1nnc(SCC(=O)NCCOc2ccccc2)s1`, the “hERG current change (%, negative = inhibition) at 10uM” value came out at 4.23%.

Turning to `COc1ccc(OC)c(C2=Nn3c(nnc3C3CCCCC3)SC2)c1`, the “hERG current change (%, negative = inhibition) at 10uM” value is on record as -39.4%.

As to `O=c1c2oc3ccccc3c2ncn1Cc1ccccc1F`, the “hERG current change (%, negative = inhibition) at 10uM” value is recorded as -21.4%.

As to `CCOC(=O)CSc1nc(N)c(C#N)c(CC(C)C)c1C#N`, the “hERG current change (%, negative = inhibition) at 10uM” value is given as -9.92%.

`O=C(COC(=O)c1ccccc1O)Nc1ncc(Cl)cc1Cl`: the “hERG current change (%, negative = inhibition) at 10uM” value amounted to 3.51%.

For `Cc1cc(NC(=O)CSc2nnc(-c3ccco3)n2Cc2ccco2)no1`, the “hERG current change (%, negative = inhibition) at 10uM” value is listed as -24.7%.

For the compound `CC12CC3CC(C)(C1)CC(NCc1ccncc1)(C3)C2.Cl`, the “hERG current change (%, negative = inhibition) at 10uM” value is given as -58.7%.

For `C/C(=C1/SC(N2CC(C)OC(C)C2)=NC1=O)c1ccccc1` (stereo not shown), the “hERG current change (%, negative = inhibition) at 10uM” value is recorded as -22.4%.

Turning to `O=C(CSc1nnc(Cc2ccccc2)n1C1CCCCC1)N1CCOCC1`, the “hERG current change (%, negative = inhibition) at 10uM” value is -21.1%.
